The text below walks through data of patent US20260027209A1 (LEGEND BIOTECH IRELAND, published 2026).

Substitutions are numbered along the chain they refer to. Like-named read-outs stand apart in the source and are kept apart here.

A word on the EC50: it is the concentration that produces a half-maximal response. A high value points to weaker potency.

Test [1] concerns the target T1, human Claudin-6 (human, UniProt P56747 1-220).
T1 construct: whole, on cells; also called CLDN6; huCLDN6
T1 sequence (looked up): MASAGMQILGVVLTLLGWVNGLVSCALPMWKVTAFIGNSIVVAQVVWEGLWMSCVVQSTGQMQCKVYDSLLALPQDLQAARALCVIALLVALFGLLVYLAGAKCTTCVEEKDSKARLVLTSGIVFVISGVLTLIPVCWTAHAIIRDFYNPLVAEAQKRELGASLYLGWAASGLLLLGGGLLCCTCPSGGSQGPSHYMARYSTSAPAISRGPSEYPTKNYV
The test can be described thus: flow cytometry on OV90 cells (CLDN6-positive tumor cell line). As for the experimental part:
(§1) The anti-CLDN6 antibodies were tested for binding capacities to ES-2. huCLDN3. Luc cell lines, ES-2. huCLDN4. Luc cell lines, ES-2. huCLDN6. Luc cell lines, and ES-2. huCLDN9. Luc cell lines by cell based flow cytometry. Briefly, 5×10⁵ ES-2. huCLDN. Luc cell lines in DPBS (pH7.2) were incubated with serially diluted anti-CLDN6 antibodies at 4° C. for 45 min, followed by wash-centrifugation-supernatant depletion cell washing cycles for 3 times with DPBS. After wash, cell pellets were re-suspended in DPBS and incubated with the anti-human Fc antibody labeled with PE (Biolegend, Cat. No. 409304) at 4° C. for 30 min in dark. The cells were then subject to wash-centrifugation-supernatant depletion cell washing cycles for 3 times with DPBS. The cells were then run on Attune NXT flow cytometry (Thermo Fisher) to detect antibody-binding level. Data were analyzed in GraphPad prism 9 software based on the geometric mean of fluorescence intensity for the cell population in each well. FACS means fluorescence-activated cell sorting.
(§2) OV90 (ATCC #CRL-11732) is a typical CLDN6-positive tumor cell line. They were harvested and re-suspended in 1% PBS-BSA buffer on 96-well plates. The following experimental methods were the same as that in Example 6.3.1.
Humanized anti-CLDN6 chimeric antibodies were tested for binding capacities to OV90 cells by cell based flow cytometry as method in Example 6.3.2.
On the technique in general: In flow cytometry, cells or beads pass a laser one at a time.

Test [2] addresses T1, human Claudin-6. The test can be described thus: flow cytometry on ES-2.huCLDN6.Luc cells, PE anti-human Fc detection. On the procedure:
as §1
(§3) Humanized anti-CLDN6 chimeric antibodies were tested for binding capacities to ES-2. huCLDN3. Luc cell lines, ES-2. huCLDN4. Luc cell lines, ES-2. huCLDN6. Luc cell lines, and ES-2. huCLDN9. Luc cell lines by cell based flow cytometry as method in Example 6.3.1.

Test [3] has as its target T2, human Claudin-3 (human, UniProt O15551 1-220).
T2 construct: whole, on cells; On ES-2.huCLDN3.Luc cells; also called CLDN3; huCLDN3
T2 sequence (looked up): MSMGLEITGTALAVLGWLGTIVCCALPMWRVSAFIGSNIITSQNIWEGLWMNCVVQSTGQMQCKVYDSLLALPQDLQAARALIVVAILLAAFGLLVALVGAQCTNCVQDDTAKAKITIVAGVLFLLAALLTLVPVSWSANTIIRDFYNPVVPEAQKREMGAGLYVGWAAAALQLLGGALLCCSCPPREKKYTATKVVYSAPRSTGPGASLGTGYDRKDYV
The test can be described thus: flow cytometry on ES-2.huCLDN3.Luc cells; table legend: n.s. indicates no significant binding. As for the experimental part:
as §1, §3

Test [4] concerns the target T3, human Claudin-4 (human, UniProt O14493 1-209).
T3 construct: whole, on cells; On ES-2.huCLDN4.Luc cells; also called CLDN4; huCLDN4
T3 sequence (looked up): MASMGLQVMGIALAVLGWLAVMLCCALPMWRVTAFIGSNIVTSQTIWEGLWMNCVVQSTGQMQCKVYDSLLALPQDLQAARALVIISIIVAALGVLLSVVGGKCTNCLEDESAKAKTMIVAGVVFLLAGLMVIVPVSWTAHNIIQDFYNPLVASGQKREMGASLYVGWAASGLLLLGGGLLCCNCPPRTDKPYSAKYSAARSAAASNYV
The test can be described thus: flow cytometry on ES-2.huCLDN4.Luc cells; table legend: n.s. indicates no significant binding. As for the experimental part:
as §1, §3

Test [5] concerns the target T4, human Claudin-9 (human, UniProt O95484 1-217).
T4 construct: whole, on cells; On ES-2.huCLDN9.Luc cells; also called CLDN9; huCLDN9
T4 sequence (looked up): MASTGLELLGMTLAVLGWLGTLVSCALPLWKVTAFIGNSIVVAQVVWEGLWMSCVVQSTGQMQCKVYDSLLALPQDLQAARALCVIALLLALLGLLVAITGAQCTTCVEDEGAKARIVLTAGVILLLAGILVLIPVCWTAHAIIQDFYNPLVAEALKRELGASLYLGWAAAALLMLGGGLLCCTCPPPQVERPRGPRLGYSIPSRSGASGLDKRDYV
The experiment in a line: flow cytometry on ES-2.huCLDN9.Luc cells; table legend: n.s. indicates no significant binding. On the procedure:
as §1, §3

Test [6] addresses T1, human Claudin-6. The test can be described thus: flow cytometry on OV90 cells (CLDN6-positive tumor cell line). As for the experimental part:
as §1, §2
The source holds these as a separate data set.

Test [7] deals with T1, human Claudin-6. The test can be described thus: flow cytometry on ES-2.huCLDN6.Luc cells, PE anti-human Fc detection. On the procedure: as §1
This is another data set of the same source.

The target in test [8] is T2, human Claudin-3. The test can be described thus: flow cytometry on ES-2.huCLDN3.Luc cells; table legend: n.s. indicates no significant binding. As for the experimental part:
as §1
This is another data set of the same source.

The target in test [9] is T3, human Claudin-4. The experiment in a line: flow cytometry on ES-2.huCLDN4.Luc cells; table legend: n.s. indicates no significant binding. As for the experimental part:
as §1
The source holds these as a separate data set.

Test [10] has as its target T4, human Claudin-9. The test can be described thus: flow cytometry on ES-2.huCLDN9.Luc cells; table legend: n.s. indicates no significant binding. As for the experimental part:
as §1
This is another data set of the same source.

B1: 77LICNB02H2-hIgG1Fc (Fc fusion)
chain: EVRLVESGGGLVQPGGSLRLSCAASGPTVSMAWFRQAPGKLREGVAQIQAGGGRIYYADPVKGRFTISQDNSKNTLYLQMNSLRAEDTAVYYCAAQLRWDVWPIAWSLYNYWGQGTLVTVSS[human IgG1 Fc omitted here]
notes: also called humanized chimeric antibody; humanized VHH-hIgG1Fc chimeric antibody
On to B1, for which the figures for the concentration giving a half-maximal response (EC50) in the test with human Claudin-6 [1] and in the test with human Claudin-6 [2] were 6.98 nM and 7 nM, respectively. For the same molecule, the binding result with human Claudin-3 [3], with human Claudin-4 [4] and in the test with human Claudin-9 [5] was “no binding” in each case.

B2: 77LICNB02H1-hIgG1Fc (Fc fusion)
chain: B1 chain with R3Q, Q69R
notes: as for B1
As to B2, the values for the EC50 with human Claudin-6 [1] and with human Claudin-6 [2] were 7.05 nM and 7.02 nM, respectively. Besides, the binding result with human Claudin-3 [3], with human Claudin-4 [4] and with human Claudin-9 [5] was “no binding” throughout.

B3: 77LICNB02-hIgG1Fc (Fc fusion)
chain: B1 chain with E1Q, L11S, P14A, A23V, S72A, K73R, R84K, A85P, V90M, L117Q
notes: also called VHH-hIgG1Fc chimeric antibody; chimeric antibody
With B3, the EC50 with human Claudin-6 [6] came to 3.38 nM; in the test with human Claudin-6 [7], 3.77 nM. Further, the binding result in the test with human Claudin-3 [8], in the test with human Claudin-4 [9] and with human Claudin-9 [10] was “no binding” in each case.

B4: 77LICNB01-hIgG1Fc (Fc fusion)
chain: QVRLVESGGGSVQAGGSLRLSCAASGDRASRALMAWFRQAPGKEREGVAVIWTGNGLTYYANSVKGRFAISQDNAKNTVYLQMNSLKPEDTAMYYCAAAWPFGGDWSVPARYNAWGQGTQVTVSS[human IgG1 Fc omitted here]
notes: expressed in HEK293F cells, Protein A purified; also called VHH-hIgG1Fc chimeric antibody; chimeric antibody
Regarding B4, the values for the EC50 with human Claudin-6 [6] and with human Claudin-6 [7] were 7.58 nM and 5.96 nM, respectively. In addition, the binding result with human Claudin-3 [8], with human Claudin-4 [9] and in the test with human Claudin-9 [10] was “no binding” throughout.

B5: 77LICNB03-hIgG1Fc (Fc fusion)
chain: B4 chain with Q1E, R3Q, A29N, A69T
notes: as for B3
Consider B5, for which the EC50 in the test with human Claudin-6 [6] turned out to be 14.8 nM; with human Claudin-6 [7], 11 nM. The binding result with human Claudin-3 [8], in the test with human Claudin-4 [9] and in the test with human Claudin-9 [10] was “no binding” throughout.
